From article PMC4336329 (PLoS ONE, 2015) come the findings set out here.

About 2,200 (0.71%) of roughly 310,000 compounds showed an effect of 50% or more. The effect is printed as a negative number. The list shows a part of the results.

human ether-à-go-go-related gene (hERG) potassium channel, sequence (Q12809 whole entry, looked up): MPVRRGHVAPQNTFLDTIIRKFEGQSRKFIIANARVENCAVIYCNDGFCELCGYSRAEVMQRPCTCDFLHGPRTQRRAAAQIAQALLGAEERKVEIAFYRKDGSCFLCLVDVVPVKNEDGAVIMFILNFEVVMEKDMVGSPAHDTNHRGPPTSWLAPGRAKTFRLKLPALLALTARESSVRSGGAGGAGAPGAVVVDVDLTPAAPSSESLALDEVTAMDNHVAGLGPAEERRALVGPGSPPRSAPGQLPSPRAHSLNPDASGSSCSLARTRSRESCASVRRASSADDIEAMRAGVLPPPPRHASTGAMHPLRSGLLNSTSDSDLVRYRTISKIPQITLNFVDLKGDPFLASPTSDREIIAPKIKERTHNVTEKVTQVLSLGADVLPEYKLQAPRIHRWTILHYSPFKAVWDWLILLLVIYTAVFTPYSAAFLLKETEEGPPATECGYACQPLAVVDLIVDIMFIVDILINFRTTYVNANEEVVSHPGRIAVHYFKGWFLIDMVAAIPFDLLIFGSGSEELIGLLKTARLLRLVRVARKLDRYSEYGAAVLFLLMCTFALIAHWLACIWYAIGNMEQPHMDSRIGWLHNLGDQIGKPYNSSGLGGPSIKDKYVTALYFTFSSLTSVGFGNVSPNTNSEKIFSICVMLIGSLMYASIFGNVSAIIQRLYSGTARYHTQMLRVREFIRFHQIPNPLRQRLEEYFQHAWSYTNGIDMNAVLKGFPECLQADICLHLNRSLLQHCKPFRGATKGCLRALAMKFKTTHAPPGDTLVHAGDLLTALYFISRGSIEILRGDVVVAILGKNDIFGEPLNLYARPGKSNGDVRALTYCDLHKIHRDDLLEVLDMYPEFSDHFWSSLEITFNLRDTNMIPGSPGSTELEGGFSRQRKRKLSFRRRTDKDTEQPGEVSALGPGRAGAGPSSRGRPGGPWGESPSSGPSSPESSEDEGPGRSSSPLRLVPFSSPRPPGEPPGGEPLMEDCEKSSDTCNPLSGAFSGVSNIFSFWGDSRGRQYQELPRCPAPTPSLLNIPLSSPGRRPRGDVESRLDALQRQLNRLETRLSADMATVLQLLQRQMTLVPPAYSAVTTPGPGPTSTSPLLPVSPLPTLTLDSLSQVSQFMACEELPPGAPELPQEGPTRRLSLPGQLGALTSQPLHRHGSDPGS

The assay addresses human ether-à-go-go-related gene (hERG) potassium channel (human, UniProt Q12809). As to the kind of experiment: primary screen, population patch clamp on CHO cells stably expressing hERG.
Turning to `C[C@@H]1CCC2[C@](C)(CO)[C@@H](O)CC[C@]2(C)[C@@]12C[C@](CO)(CC(=O)[O-])CO2.O` (some centres unmarked), the “hERG current change (%, negative = inhibition) at 1uM” value came out at 13.8%.

In the case of `O=C1C2CCCN2C(c2cccnc2)N1c1ccc(Cl)cc1` (centres unmarked), the “hERG current change (%, negative = inhibition) at 1uM” value was determined as 5.62%.

In the case of `COc1ccc(-c2nc(C(=O)NCCCN3CCOCC3)cc3c2[nH]c2ccccc23)cc1OC`, the “hERG current change (%, negative = inhibition) at 1uM” value is -16.2%. Consider `CC(=O)N1CCc2cc(S(=O)(=O)CCC(=O)N3CCN(C(=O)c4ccco4)CC3)ccc21`, for which the “hERG current change (%, negative = inhibition) at 1uM” value was 6.78%. For `NC1=C(O)C(=O)C(c2ccccc2)O1` (centres unmarked), the “hERG current change (%, negative = inhibition) at 1uM” value is given as 12.1%. Under `O=C(Nc1nccs1)C1CCCCN1S(=O)(=O)c1ccccc1` (centres unmarked) stands 7.25%.

With `O=C([O-])c1ccc(N(Cc2ccccc2)S(=O)(=O)c2ccccc2)cc1.[Na+]`, the “hERG current change (%, negative = inhibition) at 1uM” value is reported as 9.01%. Turning to `C=CCNC(=S)Nc1cccc2ccccc12`, the “hERG current change (%, negative = inhibition) at 1uM” value is on record as 4.27%. Regarding `CCCCC1CC(/C(C)=N/NC(N)=O)OC1=O` (centres unmarked), the “hERG current change (%, negative = inhibition) at 1uM” value came to 0.545%. Take `Cc1[nH]c2ccc3ncccc3c2c1C`: the “hERG current change (%, negative = inhibition) at 1uM” value came out at 13.3%. To `CC(C)C(NC(=O)c1ccc(C(C)(C)C)cc1)C(=O)Nc1cccc(S(N)(=O)=O)c1` (centres unmarked) belongs 5.55%.

With `O=C(Nc1nnc(-c2ccco2)s1)C1CCCCC1`, the “hERG current change (%, negative = inhibition) at 1uM” value was determined as 0.589%.

On to `CCOc1ccc(NC(=O)COc2cccc3c2CCN(Cc2cccnc2)C3=O)cc1`, for which the “hERG current change (%, negative = inhibition) at 1uM” value is reported as -11.6%.

Regarding `CCOC(=O)c1cnc2c(c(C)nn2CC)c1NC1CC1`, the “hERG current change (%, negative = inhibition) at 1uM” value is reported as 13.4%. With `Cc1ccc(NC(=O)c2ccc(-n3cccn3)nc2)cc1`, the “hERG current change (%, negative = inhibition) at 1uM” value was 8.58%. To `COC(=O)c1cc(NC(=O)CN(c2ccccc2OC)S(=O)(=O)c2ccccc2)ccc1Cl` belongs 15.1%; to `Cc1cc(NCc2ccccc2)nc2ccccc12`, -1.66%; to `COc1nc(-c2cnccn2)sc1C`, 10.3%. On to `S=c1[nH]nc(C2CCCCC2)n1/N=C/c1c(Cl)cccc1Cl`, for which the “hERG current change (%, negative = inhibition) at 1uM” value was -0.551%. Under `CCOc1ccc(N2C(=O)C3C4C=CC(CC4)C3C2=O)c([N+](=O)[O-])c1` (centres unmarked) stands -29.2%; under `NS(=O)(=O)c1ccc(NC(=O)COC(=O)c2cnc(Cl)c(Cl)c2)cc1`, 7.97%; under `CCN(CC)C(=O)C1c2ccccc2Oc2ccccc21`, 10.4%.

Consider `Cc1ccc(S(=O)(=O)NCc2ccc(C(=O)N3CCc4ccccc4C3)cc2)cc1`, for which the “hERG current change (%, negative = inhibition) at 1uM” value was found to be 5.64%. Under `COc1ccc(-c2csc(NC(=O)Cc3ccccc3)n2)cc1OC` stands 12.4%.

Turning to `O=C(NCc1ccccc1Cl)C1CCN(C(=O)c2ccco2)CC1`, the “hERG current change (%, negative = inhibition) at 1uM” value is 0.815%. To `COc1ccc(CN2CCN(Cc3ccc(Br)cc3)CC2)c(OC)c1OC.O=C(O)C(=O)O` belongs -24.8%.

For `Cc1ccc(NC(=O)CCC(=O)OCC(=O)c2ccc(Oc3ccc([N+](=O)[O-])cc3)cc2)c(C)c1`, the “hERG current change (%, negative = inhibition) at 1uM” value was determined as 7.71%. Under `CCNCC(=O)Nc1c(C)cccc1C` stands 14%.

Regarding `c1ccc2c(c1)[nH]c1c(N3CCOCC3)ncnc12`, the “hERG current change (%, negative = inhibition) at 1uM” value is recorded as 14.3%. To `O=C(CN(Cc1ccco1)C(=O)Cn1nnc(-c2cccs2)n1)NCc1ccccc1` belongs 4.81%; to `CCc1ccc(NC(=O)CCCN2C(=O)C3CC=CCC3C2=O)cc1` (centres unmarked), 6.64%; to `CCCCNC(=O)CCC(=O)Nc1ncc(-c2ccc(C)cc2)n1C`, 7.43%. To `C[C@@H]1C=C[C@](Cc2ccccc2)(C(=O)NCC2CC2)N1C(=O)c1ccccc1` belongs 11.4%; to `O=C(CN1CCOCC1)Nc1cc(C(F)(F)F)ccc1Cl`, 9.68%. Turning to `Cc1cc(C)c(S(=O)(=O)Nc2ccc(O)cc2)c(C)c1`, the “hERG current change (%, negative = inhibition) at 1uM” value is listed as 6.66%. `c1csc(-c2noc(COc3ccc4c(c3)CCCC4)n2)c1`: the “hERG current change (%, negative = inhibition) at 1uM” value was found to be 16.1%. To `O=C(NCC1CCCO1)c1cc(-c2ccco2)nc2ccccc12` (centres unmarked) belongs 10%.

For `O=C(COC(=O)c1cnccn1)Nc1ccccc1-c1ccccc1`, the “hERG current change (%, negative = inhibition) at 1uM” value came to 12.7%. As for `CCOc1ccc(CCNC(=O)C2CCN(C(=O)N(C)C)CC2)cc1OCC`, the “hERG current change (%, negative = inhibition) at 1uM” value is on record as 5.85%. Under `COc1cc(SC)ccc1C(=O)NC1CCCc2ccccc21` (centres unmarked) stands 12.5%; under `CCN(CC(=O)NCc1ccc(F)cc1)C(=O)c1ccc(C(=O)c2ccccc2)cc1`, -6.48%; under `CCOc1cccc2cc(-c3csc(NC(=O)CCC(=O)NCCN4CCCCC4C)n3)c(=O)oc12` (centres unmarked), -1.56%. Consider `Cc1cccc(NC(=O)NC(C)C(c2ccccc2)N2CCN(C)CC2)c1` (centres unmarked), for which the “hERG current change (%, negative = inhibition) at 1uM” value was 2.61%. Turning to `Cc1ccc(C(=O)N/C(=C/c2cccnc2)C(=O)NCc2ccco2)cc1`, the “hERG current change (%, negative = inhibition) at 1uM” value is -4.21%. For `O=C(Nc1ccccn1)C1CCN(S(=O)(=O)c2ccc3c(c2)OCCCO3)CC1`, the “hERG current change (%, negative = inhibition) at 1uM” value amounted to 0.398%. Under `Cc1[nH]n(-c2ccccc2)c(=O)c1C(C[N+](=O)[O-])c1ccc(F)cc1` (centres unmarked) stands 1.46%; under `COC(=O)C1=C(c2cccc(OCc3ccccc3)c2)C[C@@H]2CC[C@H]1N2C(=O)NCCc1ccc(F)cc1`, 10.3%; under `C1=C(c2ccccc2)Nc2nnnn2C1`, 17%. Under `CC(C)c1nc(N2CCCC2)c(C#N)c2c1CCCC2` stands -0.355%. As to `Cn1c(N2CCOCC2)nc2c1c(=O)n(Cc1ccc(Cl)c(Cl)c1)c(=O)n2C`, the “hERG current change (%, negative = inhibition) at 1uM” value was -4.67%. To `Cc1cc2nc3n(c2cc1C)CC1CC(C(=O)NCCC(C)C)N(C)C31` (centres unmarked) belongs 9.14%; to `Cc1c(C(=O)Nc2ccc(F)cc2)c2ccccn2c1CCc1ccncc1`, 9.04%; to `COCCCN1C(=O)c2ccc(C(=O)N3CCN(c4ccccc4OC)CC3)cc2C1=O`, -1.95%. With `Cc1c(Cl)c([N+](=O)[O-])nn1CC(=O)NCc1ccc(Cl)cc1`, the “hERG current change (%, negative = inhibition) at 1uM” value is reported as -1.51%. To `O=C(Nc1cc(C(F)(F)F)ccc1N1CCCCC1)c1cccc([N+](=O)[O-])c1` belongs 11.3%; to `CC(C)(C)NC(=O)NC(=O)CN1CCN(Cc2ccccc2)CC1`, -1.44%.
